The campaign covered roughly 52,000 compounds. About 1,700 (3.3%) were called active. No stated cut-off is given here; in the data, active means survival mostly below about 52% (no sharp cut-off); inactive means mostly above about 56%. The list shows a part of the results.
tested on: Wild type; assay: growth inhibition of S. aureus wild type versus tarO mutant, primary screen, teichoic acid synthesis inhibitors, RN4220, OD600 (AID 463173); conditions: S. aureus RN4220 wild type/DeltatarO growth, OD600, 18 h, stronger effect = lower value, screened at 18.75 µg/mL (by protocol)

Row | Structure (SMILES) | survival
1 | CCOc1ccc(NS(=O)(=O)c2ccc3[nH]cc(C(=O)N(C)Cc4ccccc4)c(=O)c3c2)cc1 | active: 1%
2 | COc1ccc2c(c1)CC(NC(=O)Nc1c(C)cc(C)cc1C)CO2 (stereo unspecified) | inactive: 88%
3 | Cc1ccc(OC(=O)c2cc(-c3ccc4c(c3)OCCO4)on2)cc1C | active: -7%
4 | COc1ccc(NC(=O)c2oc3ccccc3c2NC(=O)c2cc3ccccc3o2)cc1 | inactive: 88%
5 | Cc1ccccc1S(=O)(=O)Cc1ccc(C(=O)NC2CCCCC2)o1 | inactive: 119%
6 | CCOc1ccc(NC(=O)CSc2nnc3scc(-c4ccc(Cl)cc4)n23)cc1 | inactive: 74%
7 | CCOc1cccc2cc(-c3nc4ccc(C(=O)O)cc4[nH]3)c(=O)oc12 | inactive: 88%
8 | Cc1cccc(-n2c3nc(=O)[nH]c(=O)c-3cc3c(Cl)cccc32)c1C | inactive: 128%
9 | COc1ccc(C)cc1S(=O)(=O)N1CCN(c2cccc(Cl)c2)CC1 | inactive: 73%
10 | COc1cc2oc(=O)c(CC(=O)N3CCCCC3)c(C)c2cc1Cl | inactive: 84%
11 | CC(=O)Nc1ccc(C2Sc3ccccc3NC3=C2C(=O)c2ccccc23)cc1 (stereo unspecified) | inactive: 119%
12 | CCOC(=O)c1ccc2oc(=O)n(Cc3ccccc3)c2c1 | inactive: 68%
13 | Cc1ccc(C)c(CN2C(=O)c3ccccc3S(=O)(=O)c3ccc(C(=O)N4CCCCCC4)cc32)c1 | inactive: 88%
14 | O=C(COc1ccc(F)cc1)Nc1ccc2nc(SCC(=O)N3CCc4ccccc43)sc2c1 | inactive: 82%
15 | Cc1cc(C)c(NC(=O)c2cc3sc(Cl)cc3n2C)c(C)c1 | inactive: 109%
16 | COc1ccccc1CNC(=O)c1ccc(N2CCCC2)c(NC(=O)NCCC(C)C)c1 | inactive: 110%
17 | COc1cccc(NC(=O)CSc2ncc(S(=O)(=O)c3ccc(C)c(C)c3)c(=O)[nH]2)c1 | inactive: 82%
18 | Cc1oc2ncn(CC(C)C)c(=O)c2c1C(=O)NCCCN1CCCCC1 | inactive: 73%
19 | Cc1cccc(N2C(=O)CS/C2=N\NC(=O)c2cccnc2)c1C | inactive: 107%
20 | CCCNc1ncccc1C(N)=O | inactive: 103%
21 | CC(=O)c1ccc(N2CCN(S(=O)(=O)c3ccc(-c4cc(C(F)(F)F)on4)s3)CC2)cc1 | inactive: 72%
22 | Cc1ccccc1OCC(=O)OCc1cc(=O)n2nc(C3CCCCC3)sc2n1 | inactive: 87%
23 | Cc1csc2nc(COc3ccccc3NC(=O)c3ccco3)cc(=O)n12 | inactive: 127%

Row | Structure (SMILES) | survival
24 | CSc1cccc(NC(=O)Cn2c3ncccc3c(=O)n2-c2ccc(C)cc2)c1 | inactive: 119%
25 | CCc1c(-c2ccccc2)nc2ccccc2c1C(=O)NCCc1ccccc1 | inactive: 79%
26 | COc1cc(NC(=O)CCc2nc(-c3cccs3)no2)cc(OC)c1OC | inactive: 89%
27 | Cc1ccc2c(=O)cc(C(=O)Nc3cccc(Cl)c3C)oc2c1C | inactive: 86%
28 | CCCCCOC(=O)CSc1ncnc2c1sc1nc(N3CCOCC3)c3c(c12)CCCC3 | inactive: 61%
29 | COc1ccc(OCCCCn2c(-c3ccc(Cl)cc3)nc3ccccc3c2=O)cc1 | inactive: 38%
30 | Cn1c(=O)c2c(-c3ccccc3Cl)n(-c3cc(Cl)ccc3O)cc2n(C)c1=O | inactive: 69%
31 | Cc1cc(Nc2cccc(C)c2C)n2cnnc2n1 | inactive: 101%
32 | Cc1ccc(C(=O)CC2(O)C(=O)N(CCc3ccccc3)c3ccc(Cl)cc32)cc1 (stereo unspecified) | active: 3%
33 | COCCn1ccc2c(OCC(=O)Nc3cccc(OC)c3)cccc2c1=O | inactive: 90%
34 | Cc1cccc(NC(=O)CSc2nc(-c3ccccc3)cn2-c2ccccc2)c1C | inactive: 69%
35 | COc1ccc(Nc2ncc(C(=O)N3CCN(c4cccc(Cl)c4)CC3)c3ccccc23)cc1 | inactive: 73%
36 | Cc1ccc(C)c(-n2c(CCC(=O)O)ccc2-c2ccc(Cl)cc2)c1 | inactive: 87%
37 | CC(C)CC(C(=O)NCc1ccc(F)cc1)N1Cc2ccccc2C1=O (stereo unspecified) | inactive: 72%
38 | CCc1ccccc1NC(=O)CN1CCC(NC(=O)NC2CCCCC2)CC1 | inactive: 102%
39 | CCOc1ccc(-c2nc(SCC(=O)Nc3ccc(C)c(C)c3)n3[nH]c(=O)cc3n2)cc1 | inactive: 77%
40 | Cc1ccc(C(C)C)c(OCC(=O)Nc2ccc(C(=O)OC3CCCCC3)cc2)c1 | active: 6%
41 | Cc1nc(C)c(-c2ccc(SCC(=O)Nc3ccc(C)c(F)c3)nn2)s1 | inactive: 74%
42 | COc1ccc(CNC(=O)c2c(O)nc3cc(C)ccn3c2=O)cc1 | inactive: 88%
43 | CCc1ccc2ncc3c(-c4ccc(F)cc4)nn(CC(=O)NCc4ccccc4)c3c2c1 | inactive: 88%
44 | Cc1ccc(/C=C/c2onc(C)c2S(=O)(=O)N2CCC(C(=O)NCc3ccc(C)o3)CC2)cc1 | inactive: 152%
45 | CCc1nnc(SCc2nc(-c3ccc(OC)c(OC)c3)oc2C)c2cc3sc(C)cc3n12 | inactive: 77%
46 | COc1cccc(CNC(=O)Cc2ccc(NC(=O)N3CCCCc4ccccc43)cc2)c1OC | inactive: 54%

Row | Structure (SMILES) | survival
47 | Cc1cc(C)cc(N2C(=O)CSC23C(=O)N(CC(=O)NCCc2ccccc2)c2ccccc23)c1 (stereo unspecified) | inactive: 68%
48 | CC(C)Oc1ccc(CNC(=O)CN2C(=O)CCc3cc(S(=O)(=O)N4CCCCC4)ccc32)cc1 | inactive: 79%
49 | Cc1ccc(CSCc2ccc(C(=O)NCCc3ccc(Cl)cc3)o2)cc1 | inactive: 73%
50 | COc1ccc(NC(=O)CCS(=O)(=O)c2cccc3nonc23)cc1Cl | inactive: 83%
51 | CCOC(=O)C1=C(CS(=O)(=O)c2ccc(C)cc2)NC(=O)NC1c1ccc(C(C)C)cc1 (stereo unspecified) | inactive: 82%
52 | CN(C(=O)c1ccc2c(c1)N(Cc1cccc(Cl)c1)C(=O)c1ccccc1S2=O)C1CCCCC1 (stereo unspecified) | inactive: 95%
53 | CC(=O)Oc1ccc(C(=O)NC2CCSC2=O)cc1 (stereo unspecified) | inactive: 100%
54 | O=c1[nH]c2ccccc2cc1CNc1ccccc1 | inactive: 101%
55 | Cc1oc2ncn(C)c(=O)c2c1C(=O)NC(C)c1ccccc1 (stereo unspecified) | inactive: 129%
56 | COc1ccccc1NCc1cccn1-c1nnc(N2CCOCC2)s1 | inactive: 110%
57 | NC(N)=Nc1nc2cc(Cl)ccc2o1 | inactive: 114%
58 | Cc1ccc(C)c(CN2C(=O)CSc3ccc(C(=O)NCc4ccc(F)cc4)cc32)c1 | inactive: 79%
59 | O=C(CSC1=Nc2ccccc2N=C(c2ccc(F)cc2)C1)NCc1ccc(F)cc1 | inactive: 83%
60 | CCS(=O)(=O)N1CCc2cc(C(=O)Nc3cccc(Cl)c3C)ccc21 | inactive: 89%
61 | O=C(c1cccc(Br)c1)N1CCN(Cc2cc(=O)n3nc(-c4ccccc4)sc3n2)CC1 | inactive: 84%
62 | CCC(=O)N1c2nc(-c3ccco3)nn2C2(CCCCC2)[C@@H]2CCCC[C@@H]21 | inactive: 128%
63 | Cc1ccc(CSc2nc3cccnc3n2Cc2ccc(C(=O)NCCc3ccccc3)cc2)cc1 | inactive: 65%
64 | O=C(CN1C2=NCCN2c2ccccc21)C12CC3CC(CC(C3)C1)C2 | inactive: 98%
65 | CCOc1c(Cl)cc(Cl)cc1CNCCSc1nnnn1C | inactive: 116%
66 | COc1ccc(N2CCN(C(CNC(=O)C(=O)NCCCN(C)C)c3cccnc3)CC2)cc1 (stereo unspecified) | inactive: 84%
67 | O=C(Nc1cc2c(cc1C(=O)c1ccccc1Cl)OCCO2)c1ccc(Br)cc1 | inactive: 73%
68 | Cc1nc2c(-c3ccccc3)c(C)nn2c(C)c1CCC(=O)NCc1ccccc1Cl | inactive: 83%
69 | CCOC(=O)c1[nH]c(C)c(Cc2ccc(OCC)cc2)c1C | inactive: 111%

Row | Structure (SMILES) | survival
70 | Cc1ccc(-n2nnnc2CNC(=O)c2ccccc2S(C)(=O)=O)cc1C | inactive: 83%
71 | FC(F)(F)c1cc(-c2ccccc2)nc2cc(-c3ccc(Br)cc3)nn12 | inactive: 67%
72 | COc1ccc(-c2cn3nc(N4CCCC(C(=O)Nc5ccc(C)c(C)c5)C4)sc3n2)cc1 (stereo unspecified) | inactive: 65%
73 | O=C(CCC(=O)OCC(=O)c1ccc(Cl)cc1)Nc1ccc(Oc2ccccc2)cc1 | inactive: 129%
74 | O=S(=O)(CCc1nc2ccccc2s1)c1ccc(Cl)cc1 | inactive: 88%
75 | CCc1ccc2occ(CC(=O)Nc3c(C(=O)Nc4ccc(C)cc4)oc4ccccc34)c2c1 | inactive: 114%
76 | COC(=O)c1c(SCC(=O)Nc2cc(C)cc(C)c2)[nH]c2ccccc2c1=O | inactive: 40%
77 | Cn1c(C(=O)N(Cc2ccccc2)Cc2cccs2)cc2sccc21 | inactive: 120%
78 | CCCn1cc(S(=O)(=O)c2cc(C)ccc2C)c(=O)c2cc(F)c(N3CCOCC3)cc21 | inactive: 135%
79 | Cc1ccc(C(=O)n2nc(C)c(S(=O)(=O)N3CCOCC3)c2C)cc1 | inactive: 85%
80 | CCCNc1ncnc2onc(C)c12 | inactive: 74%
81 | O=C(O)CCC1(CCC(=O)O)CCCCC1=O | inactive: 108%
82 | Cc1cc(S(=O)(=O)Nc2ccc(-c3ccc(N4CCCCC4)nn3)cc2)c(C)cc1Cl | inactive: 133%
83 | COc1cccc(-c2nn(C)c3sc(C(=O)NCCc4ccc(Cl)cc4)cc23)c1 | inactive: 86%
84 | O=C(NCc1ccco1)C(c1ccccc1)N(Cc1ccco1)C(=O)Cn1nnc2ccccc21 (stereo unspecified) | inactive: 113%
85 | CC(C)c1cnc2c(c1SCC(=O)Nc1ccccc1C(F)(F)F)c(=O)n(C)c(=O)n2C | inactive: 86%
86 | Cc1ccc(CSc2nc(-c3cccs3)ccc2C#N)cc1 | inactive: 31%
87 | Cc1cccc(N2CCN(c3cc(C)nc4c(-c5ccc(Cl)cc5)c(C)nn34)CC2C)c1 (stereo unspecified) | inactive: 74%
88 | Cc1nnc(SCc2ccc(Cl)cc2)c2cc3occc3n12 | inactive: 28%
89 | CCOc1ccc(NC(=O)NCCCN2CCN(c3ccc(F)cc3)CC2)cc1 | inactive: 67%
90 | Cc1cccc(C)c1NC(=O)C(NS(=O)(=O)c1ccc2c(c1)CCC(=O)N2)c1ccccc1 (stereo unspecified) | inactive: 74%
91 | Cc1c2cnn(-c3ccccc3)c(=O)c2c(C)n1CCCC(=O)Nc1cc(F)ccc1F | inactive: 78%
